Laboratory results taken from ChEMBL document CHEMBL4888484, “Replenishing the malaria drug discovery pipeline: Screening and hit evaluation of the MMV Hit Generation Library 1 (HGL1) against asexual blood stage Plasmodium falciparum ,using a nano luciferase reporter read-out” (2022).
About 540 (0.36%) of roughly 150,000 compounds showed an effect of 50% or more. Some of the results follow.

Test system: Plasmodium falciparum
Assay: Primary screen in NF54 nanoGlo assay, in single point, at 2uM, 72h; a lower Z score goes with more inhibition
Type: functional, Erythrocyte
Settings: timepoint 72 hour

Row | Structure (SMILES) | % Inhibition | Z score
1 | CCOC(=O)c1c(C)nn(C2CCCCC2)c1N | -9% | 1.69
2 | CCN(C(=O)NCc1ccc(N)cc1Cl)C(C)C | -12% | 1.35
3 | COc1ccc([C@@H]2Cn3nnc(C(=O)N4CCC(C(=O)NCc5ccc(C)cc5)CC4)c3CO2)cc1 | -11% | 1
4 | CS(=O)(=O)NCCN1CCC2(CCCC2)CC1 | -3% | 0.42
5 | Cc1ccc(C(=O)N[C@H]2CO[C@H]3[C@@H]2OC[C@@H]3n2nnnc2-c2ccccc2)cc1 | 1% | -0.15
6 | CNCC(=O)N(Cc1ccccc1)Cc1cccc(C)n1 | -1% | 0.16
7 | Cc1cc(N[C@H](C(=O)O)C2CCCCC2)nc(C(C)C)n1 | -17% | 1.74
8 | CC(C)c1nc2cc(C(=O)N3CCNC(=O)[C@@H]3c3ccc(F)cc3)ccc2o1 | -7% | 1.03
9 | CC(C)Oc1ccc(C(=O)N2CCC(c3nc4ccccc4o3)CC2)cc1 | -7% | 1.13
10 | COc1ccc(-c2cc(C(=O)Oc3ccc(C)cc3)c3ccccc3n2)cc1 | -9% | 1.5
11 | CC[C@@H](CNC(=NC)NCc1ccon1)Oc1ccccc1 | -6% | 0.83
12 | Cc1c(C(=O)NC(C)C2CCCO2)cnn1C1CCS(=O)(=O)C1 (stereo not given) | -7% | 0.77
13 | Cc1nc(NC(=O)C(=O)NCC2(O)CCCCC2)sc1C | 2% | -0.23
14 | O=C(O)c1cc(NS(=O)(=O)c2cccs2)ccc1N1CCC(N2CCCCC2)CC1 | -6% | 0.62
15 | CCC1=NO[C@H](C(=O)NC2CCS(=O)(=O)CC2)C1 | -11% | 1.65
16 | CC(C)(C)c1noc(Cn2cc(CCc3ccccc3)nn2)n1 | -4% | 0.86
17 | CC(C)n1cnnc1[C@H]1CCCN(c2ncc(Cl)cc2Cl)C1 | -9% | 1.65
18 | COCCn1c(=O)c(CNC[C@H]2COc3ccccc3O2)cc2cc(C)ccc21 | -12% | 1.78
19 | Cc1cc(-c2cccc(C(=O)NCCc3ncnn3C)c2)cc(C)n1 | -4% | 0.51
20 | O=C(NC[C@H]1CCCO1)c1coc(CN(Cc2ccc(C(F)(F)F)cc2)Cc2ccc3c(c2)OCO3)n1 | 4% | -0.35
21 | Cc1noc(CCCC(=O)N2CCC[C@H]2c2ccncc2)n1 | -4% | 0.57
22 | Cc1nnnn1[C@@H](C(=O)N1CCC2(CC1)COC(=O)O2)c1ccccc1 | -3% | 0.33
23 | Cc1cnc(NC(=O)c2cc3c(s2)CCCC3)s1 | -12% | 1
24 | O=C(c1ccncc1)n1nc(Cc2ccccc2)c2ccccc2c1=O | -7% | 1.05
25 | CN(CC1(C)COC1)C(=O)[C@@H]1CCCCCN1C | -2% | 0.36
26 | O=C(CN(CC1CCCO1)C(=O)C1CC1(Cl)Cl)N1CCCC1 (stereo not given) | -19% | 1.85
27 | Cn1[nH]c(=O)c2cc(Br)cnc21 | -12% | 2.44
28 | CN(CCCN=C(N)NC1CCC(O)CC1)c1ccccc1 (stereo not given) | -19% | 1.78

Row | Structure (SMILES) | % Inhibition | Z score
29 | COC(=O)N1CC[C@H](NC(=O)OC(C)(C)C)C1 | 33% | -0.92
30 | O=C(O)[C@H]1CCCN(C(=O)c2ccc(-c3ccccc3)[nH]2)C1 | -10% | 1.4
31 | CN(CC(=O)Nc1cc(F)cc(F)c1)c1cc(C(F)(F)F)nc(-c2ccncc2)n1 | -1% | 0.2
32 | CC1(C)CN(C(=O)CCc2ccccn2)C[C@]1(C)O | -6% | 1.1
33 | CC(C)C[C@H]1C(=O)NCCCN1C(=O)NC1CCCCC1 | 6% | -0.47
34 | COCCc1ccc2oc(NCc3cnn(C)c3)nc2c1 | 3% | -0.41
35 | O=C(Nc1nc2c(F)cccc2s1)[C@H]1CCOC1 | -11% | 2.18
36 | Cc1noc(C)c1S(=O)(=O)NCc1noc(C(F)(F)F)n1 | -8% | 1.52
37 | COc1ccc(F)cc1C(NC(=O)c1ccnnc1)[C@H]1C[C@H](O)C1 (stereo not given in full) | 29% | -3.81
38 | CN(C)C[C@H]1CCN(C(=O)N(c2ccccc2)c2ccccc2)C1 | 11% | -1.58
39 | C[C@H]1CCc2ccccc2N1CCNC1=NS(=O)(=O)c2ccccc21 | -10% | 1.31
40 | CC(C)(C)OC(=O)NCCN(Cc1ccccc1)C1CC1 | 0% | -0.06
41 | CC(C)Cc1cnc(NC(=O)N(C)CCCn2ccnc2)s1 | -2% | 0.26
42 | Cc1cc(Cl)c2c(c1)[C@@H](NCc1cncn1C)CCCO2 | 2% | -0.27
43 | O=C(C1CC1c1ccccc1)N1CCOC2(CCC2)C1 (stereo not given) | -7% | 0.77
44 | Cc1ccc(S(=O)(=O)NCc2nc(C(=O)N3CCC(C)CC3)c(C)o2)cc1C | 5% | -0.68
45 | COc1ccc(NC(=O)C2[C@@H]3C=C[C@]4(O3)C(C(=O)NC3CCCCC3)N(Cc3ccccc3Cl)C(=O)[C@H]24)cc1 (stereo not given in full) | -5% | 0.81
46 | Cc1ocnc1C(=O)NCCc1c[nH]c2ccccc12 | -34% | 3.97
47 | CC(C(=O)O)C(NC(=O)c1cc(N2CCCC2=O)ccc1F)c1ccccc1 (stereo not given) | -8% | 1
48 | COCCN(CCOc1ccccc1F)C(=O)c1n[nH]c2c1COCC2 | -13% | 2.45
49 | CC(C)c1nnc(-c2sccc2NC(=O)c2ccc(C#N)cc2)o1 | -9% | 0.92
50 | CCCC(=O)Nc1ccc(CNC(=O)c2cncn2C)cc1 | -6% | 0.91
51 | CN(C[C@H]1CC(=O)N(C2CCCC2)C1)C(=O)c1ccc(-c2cncnc2)cc1 | -3% | 0.51
52 | CC(=O)Nc1nonc1N(C(C)=O)C(C)=O | -7% | 1.23
53 | CC1(C)CCc2nc(CNCC3(CS(C)(=O)=O)CC3)sc2C1 | -16% | 2.98
54 | NC(=NOCC(=O)NC1CCCCCC1)c1ccc(Cl)cc1 | -15% | 2.97
55 | Cc1cccc(N2CCN(C(=O)C3CCCN(S(=O)(=O)c4cccc5nonc45)C3)CC2C)c1 (stereo not given) | 3% | -0.48
